In the supplement of paper PMC4166925:
± gives the standard deviation of the averaged measurements. Over roughly 33,000 sequences, “E-score (dimensionless, -0.5 to 0.5)” has its median near -0.049; the highest 2% begin near 0.37. The list shows a part of the results.

These sequences were tested on T1, PmTbr T-box DNA-binding domain (GST fusion) (assay: PBM E-score of 8-mer (E-score (dimensionless, -0.5 to 0.5)); Tbr is Tbrain of the sea star Patiria miniata (Pm) or the sea urchin Strongylocentrotus purpuratus (Sp); higher = stronger binding preference; most listed sequences are background and not binding sites). Conditions: the construct has about 5 more residues each side.
T1 sequence: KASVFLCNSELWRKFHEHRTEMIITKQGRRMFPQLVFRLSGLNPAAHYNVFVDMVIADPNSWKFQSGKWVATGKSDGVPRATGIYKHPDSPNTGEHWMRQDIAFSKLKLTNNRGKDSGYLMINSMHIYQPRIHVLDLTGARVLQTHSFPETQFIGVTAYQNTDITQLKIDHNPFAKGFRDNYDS
Procedure, shortened: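 Using the Universal PBM Analysis Suite, every ungapped 8-mer received an enrichment E-score averaged over duplicate arrays. Probe intensities came from double-stranded Universal Agilent oligonucleotide arrays incubated with 200 nM GST-fused Tbr T-box DNA-binding domain in PBS (pH 7.5). That protein was expressed in BL21 E. coli at 20 °C and purified by glutathione affinity chromatography.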

Row | Sequence | PBM E-score of 8-mer
1 | ATAGACAG | 0.0457 ± 0.014
2 | CTCGGTTC | -0.0317 ± 0.029
3 | AAGTATTC | -0.202 ± 0.021
4 | AGAGTGCT | 0.0114 ± 0.0079
5 | AACGCCTT | 0.3747 ± 0.00064
6 | CAGCTCAA | 0.0425 ± 0.028
7 | ATTTGGCC | -0.117 ± 0.032
8 | CGGCGTTA | 0.189 ± 0.00085
9 | ATCATAAT | -0.0367 ± 0.044
10 | ATTGAGCC | 0.0447 ± 0.065
11 | CAGTTTGC | 0.124 ± 0.053
12 | CATAAAGG | -0.194 ± 0.048
13 | CCTCCTAA | -0.218 ± 0.063
14 | CAGTCTCC | -0.2 ± 0.074
15 | GATAGACC | -0.214 ± 0.02
16 | ATAAAAAC | -0.157 ± 0.0025
17 | CACCAGGC | 0.123 ± 0.0022
18 | CACCTAAG | 0.381 ± 0.021
19 | TATAAGGA | -0.154 ± 0.073
20 | TAAGTAGA | 0.0354 ± 0.03
21 | CCCTTCAG | -0.162 ± 0.012
22 | CACCGATA | -0.0611 ± 0.032
23 | ATCTCAGA | -0.163 ± 0.017
24 | AGTTATGG | -0.161 ± 0.056
25 | ATGATGCC | -0.00477 ± 0.022

Row | Sequence | PBM E-score of 8-mer
26 | ATTCACGC | 0.4258 ± 0.0014
27 | GAAGCCCA | -0.192 ± 0.0033
28 | GATGTACC | -0.196 ± 0.0084
29 | AACCGGGC | -0.257 ± 0.035
30 | GACTACGA | 0.0448 ± 0.043
31 | AGCTGTAA | 0.0772 ± 0.044
32 | CCGGTGCA | -0.245 ± 0.013
33 | TATGGTCA | -0.104 ± 0.036
34 | CCGGCAGG | -0.0858 ± 0.081
35 | CCTTTGAG | -0.172 ± 0.005
36 | CTCATATC | -0.0155 ± 0.095
37 | AGTTTAAA | 0.012 ± 0.076
38 | ATGAGGGA | -0.184 ± 0.032
39 | AGATGTTG | 0.0167 ± 0.014
40 | ACAGTTAT | 0.125 ± 0.093
41 | AGCTAGCA | 0.0818 ± 0.054
42 | AGGTCGGG | -0.193 ± 0.019
43 | GCAGAAGC | -0.26 ± 0.063
44 | GACGCTCA | -0.0055 ± 0.1
45 | GACCCCAA | -0.0833 ± 0.063
46 | AATGCAGT | -0.145 ± 0.059
47 | CCATGTGC | 0.19 ± 0.051
48 | AGCCAGGG | -0.226 ± 0.009
49 | ACTGGATG | -0.025 ± 0.017
50 | AGCCTCTC | -0.123 ± 0.0076

Row | Sequence | PBM E-score of 8-mer
51 | CAGCAGCG | -0.151 ± 0.0014
52 | CCTGCGAC | 0.173 ± 0.046
53 | CCACACCG | 0.134 ± 0.063
54 | CGTAAGCA | -0.0733 ± 0.049
55 | AGATAAAC | -0.0681 ± 0.042
56 | CAGTCCAG | -0.123 ± 0.074
57 | CGGGCCAG | -0.182 ± 0.023
58 | CTTGGGGC | 0.128 ± 0.069
59 | AAGACATG | 0.0276 ± 0.03
60 | CAGCGCAA | -0.122 ± 0.014
61 | GGCCCAAA | -0.257 ± 0.012
62 | ACTGGACC | -0.204 ± 0.071
63 | ATCATGAA | -0.223 ± 0.019
64 | GAATGTGC | 0.243 ± 0.0084
65 | AAAGTCAG | -0.353 ± 0.013
66 | CGCATTAG | -0.0871 ± 0.073
67 | CTTACGAC | -0.0955 ± 0.067
68 | AAAACAAG | -0.186 ± 0.046
69 | CGTGCGAG | 0.358 ± 0.018
70 | CAAACTGC | -0.00734 ± 0.029
71 | AGCACGTA | 0.226 ± 0.029
72 | GCCCCTAA | -0.178 ± 0.064
73 | CAGTGTGG | 0.249 ± 0.013
74 | ACGCGTAC | 0.148 ± 0.027
75 | GATACGCC | -0.0583 ± 0.029

Row | Sequence | PBM E-score of 8-mer
76 | AAGCGCTA | 0.314 ± 0.018
77 | AATTAACT | 0.0784 ± 0.093
78 | AAGCGTAT | -0.125 ± 0.0088
79 | CTCTACGC | -0.19 ± 0.053
80 | CAGCCTAC | 0.215 ± 0.055
81 | CGCGGGCA | -0.0525 ± 0.049
82 | CCTCGCCG | 0.147 ± 0.064
83 | ACGGGCGC | 0.0455 ± 0.05
84 | ATATGCTG | -0.123 ± 0.015
85 | CAAGATGC | -0.0815 ± 0.046
86 | GCAATACA | -0.139 ± 0.021
87 | CCCCCATA | -0.167 ± 0.043
88 | GCCCGTTA | 0.122 ± 0.02
89 | CAAGTATC | -0.0543 ± 0.007
90 | ACATCGCA | 0.229 ± 0.0078
91 | CATCAGGC | -0.0446 ± 0.083
92 | GCTTCGTA | -0.125 ± 0.055
93 | ATAAAATC | 0.039 ± 0.029
94 | ACGAGGTG | 0.4446 ± 0.0042
95 | AGTCACTA | 0.124 ± 0.006
96 | TCACATAA | 0.15 ± 0.038
97 | ACAATGTA | 0.021 ± 0.066
98 | ATCGTTAC | 0.0317 ± 0.02
99 | GCCCGAGC | -0.269 ± 0.14
100 | GAGAGTAA | 0.105 ± 0.0077

Row | Sequence | PBM E-score of 8-mer
101 | ATAGGTTG | -0.0124 ± 0.03
102 | ACCACGCT | -0.0719 ± 0.13
103 | CTTTGTTC | -0.135 ± 0.068
104 | AATACGGA | -0.11 ± 0.055
105 | GGCGCCTA | 0.0892 ± 0.039
106 | AACGAGAG | -0.1 ± 0.057
107 | TAGAGCTA | -0.124 ± 0.069
108 | ATGGTACG | -0.157 ± 0.1
109 | GGTCTCAC | 0.335 ± 0.0073
110 | AGATTAAT | -0.0305 ± 0.072
111 | CCCACGGA | -0.345 ± 0.0061
112 | AAGGGTGT | 0.399 ± 0.018
113 | AATTCGTG | -0.0689 ± 0.12
114 | ATGCACAC | 0.08762 ± 0.00051
115 | CAAAGCGA | -0.111 ± 0.051
116 | CCTTGCTC | -0.013 ± 0.013
117 | CATGATAG | -0.167 ± 0.002
118 | CGAACTTC | -0.0508 ± 0.016
119 | CTAAGCGC | -0.0519 ± 0.026
120 | CAGCCTGC | 0.00534 ± 0.055
121 | AAGGACGG | -0.3 ± 0.026
122 | ACAAGCAA | 0.0186 ± 0.025
123 | CCGTTCCG | -0.175 ± 0.008
124 | CGATGTAC | -0.063 ± 0.057
125 | AGACCCAG | -0.0972 ± 0.0069

Row | Sequence | PBM E-score of 8-mer
126 | GTCTACAA | -0.0649 ± 0.092
127 | ACCCGCCA | 0.263 ± 0.047
128 | ACCCCAGA | -0.0903 ± 0.012
129 | AGCTGCCG | 0.0115 ± 0.018
130 | GAATAATC | -0.244 ± 0.06
131 | CTCGGACC | -0.18 ± 0.019
132 | CAGATTAA | -0.0974 ± 0.025
133 | AACCGTAA | -0.205 ± 0.0074
134 | GTCTGAAA | -0.0222 ± 0.05
135 | AAGCCAGG | -0.1694 ± 0.00068
136 | ATCCCCGC | -0.0244 ± 0.024
137 | GATTATAC | -0.0102 ± 0.031
138 | ATAGGTGA | 0.345 ± 0.028
139 | CTACTCGC | 0.212 ± 0.026
140 | TGCTGCAA | 0.00697 ± 0.029
141 | CCGACCAG | -0.197 ± 0.015
142 | CAGAGCAA | -0.279 ± 0.037
143 | CCGGAACC | -0.294 ± 0.0062
144 | CTGGTGCA | -0.156 ± 0.026
145 | CATGACTC | -0.181 ± 0.016
146 | TGGCGGAA | -0.0225 ± 0.014
147 | TCCCCCAA | -0.0479 ± 0.0075
148 | CTGTGATC | 0.196 ± 0.071
149 | ACCGGAAA | -0.089 ± 0.0078
150 | GGATTTAA | -0.261 ± 0.065

Row | Sequence | PBM E-score of 8-mer
151 | AAATCTAT | -0.164 ± 0.048
152 | GCCCATAC | -0.085 ± 0.0041
153 | CTTTAATC | 0.0508 ± 0.018
154 | GACTGTCA | 0.128 ± 0.015
155 | CAAGGGAA | -0.27 ± 0.084
156 | TATAGCAA | -0.0376 ± 0.033
157 | CAGAAGTC | 0.0457 ± 0.073
158 | GTCTTAAA | -0.119 ± 0.015
159 | ACCGCGCC | -0.0519 ± 0.077
160 | AGTGAACC | -0.209 ± 0.0099
161 | CACGAAAG | -0.0822 ± 0.001
162 | CATACGTC | -0.199 ± 0.017
163 | ATAATCTA | -0.0549 ± 0.025
164 | GGCGTCCC | -0.289 ± 0.075
165 | CGCCCTAA | 0.0849 ± 0.0056
166 | CAGCCAGC | -0.171 ± 0.0073
167 | ATAAGACC | -0.00427 ± 0.0084
168 | ACCGGCCT | -0.113 ± 0.083
169 | CGCCGGAA | 0.11 ± 0.03
170 | AACCTTGA | 0.0631 ± 0.055
171 | GACACCAA | 0.345 ± 0.0047
172 | CTGTCCCC | -0.125 ± 0.058
